# Results taken from PubChem BioAssay AID624202 (National Center for Advancing Translational Sciences (NCATS), 2012).
# “And” between values parts separate entries of the source, which are not always exact repeats. Equal entries are not always repeated. Screen size: about 380,000 compounds; about 4,000 (1.1%) were called active. This list was built around the results that the source calls inconclusive (neither active nor inactive); the mix of calls is not that of the screen. Calls come from the whole dose curve; as a rule, active = well fitted activation curve with a large enough effect; inconclusive = small, poorly fitted or top-dose-only effect; inactive = no such curve, though single readings can be large or run the other way. Potencies of inconclusive entries are doubtful fits and often do not repeat.
# Experiment: qHTS Assay to Identify Small Molecule Activators of BRCA1 Expression; note: nearly all actives have a fitted effect of over 80% in size
# Conditions: MCF7-BRCA1-FFLuc reporter, luminescence, 48 h; activation: at 46.1 µM (top of the series), scaled: vehicle 0%, 10 µM genistein 100% unless noted
# Summary of the method: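 Luminescence from a BRCA1-driven firefly luciferase in MCF7 cells was the read-out, taken 15 min after substrate addition following 48 h compound exposure at 37 °C. Data were normalized to a 10 microM genistein control and DMSO vehicle.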
# Potency is the fitted concentration of half-maximal effect; tags give direction and shape of the fitted curve.
SMILES,activation,Potency
CCc1ccc(OCC2c3cc(OC)c(OC)cc3CCN2C(=O)Cc2ccc(OC)c(OC)c2)cc1 (centres undefined),inactive: -50.5%,–
COc1ccc(NC(=O)c2oc3ccc4c(c3c2C)C(=O)CC(C)(C)O4)cc1OC,–,"inconclusive: 1.58 µM [activator, partial curve, poor fit]"
O=c1cc(-c2ccccc2)oc2cc(O)c(O)c(O)c12,–,"inconclusive: 3.98 µM [activator, full curve, poor fit] and inconclusive: 17.8 µM [activator, single point]"
Brc1ccc(-c2csc(N3CCCCCC3)n2)cc1,–,"inconclusive: 31.6 µM [activator, single point]"
Clc1ccc(OCCn2cnc3ccccc32)c(Cl)c1,–,"inconclusive: 6.31 µM [activator, partial curve, poor fit]"
CCCc1cc(C(=O)N/N=C/c2cccn2C)cs1,–,active: 7.94 µM
COc1ccc(C2C(C(=O)c3sc(C)nc3C)=C(O)C(=O)N2CCCn2ccnc2)cc1 (centres undefined),–,"inconclusive: 15.8 µM [activator, single point]"
O=C(COC(=O)c1ccccc1Nc1ccc(SC(F)F)cc1)NCc1ccco1,–,"inconclusive: 15.8 µM [activator, partial curve, poor fit]"
Cc1ccc(/C=C2/SC(=S)N(c3ccc(S(=O)(=O)Nc4nccs4)cc3)C2=O)cc1,inactive: -12.1%,–
CCCc1ccc(-c2cc(C(=O)NN3CCOCC3)c3ccccc3n2)cc1,–,active: 14.1 µM
CCOC(=O)c1ccc(NS(=O)(=O)c2c(C)n(C)c(=O)n(C)c2=O)cc1,inactive: 2.16%,–
COc1cccc(/C=N/NC(=O)c2cccc(N3CCCC3=O)c2)c1,–,active: 8.91 µM
O=S1(=O)N=C(Nc2ccc(N3CCOCC3)c(Cl)c2)c2ccccc21,–,"inconclusive: 15.8 µM [activator, partial curve, poor fit]"
Cc1ccc([C@@H]2CC=C(C(=O)O)[C@H](c3ccc(Cl)cc3)N2S(=O)(=O)c2ccccc2C)cc1,inactive: 3.38%,–
O=C(CNC(=O)c1ccc(Cl)cc1)c1ccc(Cl)cc1,–,active: 11.2 µM
Cc1cc(SCCOc2ccccc2)nc(N)n1,–,"inconclusive: 10 µM [activator, partial curve, poor fit]"
CCOC(=O)CC[C@H](NC(=O)Cn1cc(C)c(=O)[nH]c1=O)C(=O)OCC,inactive: 10.9%,–
COc1ccccc1/C=C/C=c1\sc2nc(=O)c(Cc3ccccc3)nn2c1=O,inactive: -4.84%,–
CSc1nc(-c2ccc(Cl)cc2)nn1C(=O)c1ccccc1,–,"inconclusive: 11.2 µM [activator, partial curve, poor fit]"
COC(=O)c1cccc(NC(=O)c2ccc(OC)c(Cl)c2)c1,–,active: 5.01 µM
CCNc1oc(COc2ccccc2F)nc1C#N,–,"inconclusive: 11.2 µM [activator, single point]"
Cc1cccc(-n2cc(CN3CCCN(C=O)CC3)c(-c3cccc(F)c3)n2)c1,inactive: 28.8%,–
Cc1ccc2nc(-c3ccc(C#N)cc3)c(Cc3ccccn3)n2c1,–,"inconclusive: 15.8 µM [activator, partial curve, poor fit]"
Cc1ccccc1Nc1nc(N)nc(COC(=O)c2cccn2C)n1,–,"inconclusive: 1.78 µM [activator, full curve, poor fit]"
CC(C)OCCCNc1ncnc2c1cnn2-c1ccccc1,–,"inconclusive: 0.501 µM [activator, full curve, poor fit]"

SMILES,activation,Potency
Cc1ccc(C2=NN(C(=O)CCC(=O)O)C(c3cn(-c4ccccc4)nc3-c3ccc(C)cc3)C2)cc1 (centres undefined),inactive: -13.1%,–
COc1ccc(C2NC(=S)NC(C)=C2C(=O)Nc2ccccn2)cc1OC (centres undefined),–,"inconclusive: 35.5 µM [activator, single point]"
CCN(CC)C(=O)C1=C(C)N(Cc2ccc(F)cc2)C(=O)C(CC(=O)NCCc2ccccn2)C1 (centres undefined),inactive: 20.5%,–
S=c1[nH]nc(-c2cc(-c3ccccc3)n[nH]2)n1/N=C/c1cccc(Cl)c1,inactive: -26.5%,–
COc1cccc(Nc2ncnc3sccc23)c1,–,"inconclusive: 8.91 µM [activator, partial curve, poor fit]"
O=C1C2C3C=CC(CC3)C2C(=O)N1/N=C/c1c[nH]c2ccccc12 (centres undefined),–,active: 8.91 µM
C[C@H](CO)N1C[C@H](C)[C@H](CN(C)S(=O)(=O)c2ccccc2)OCc2cnnn2CCCC1=O,inactive: 7.32%,–
Cc1ccc(C(=O)Nc2cc(Cl)ccc2-n2cncn2)o1,inactive: -48.4%,–
COC(=O)c1ccc(OCC(O)CN2CCc3cc(OC)c(OC)cc3C2c2ccccc2)cc1 (centres undefined),inactive: -79.8%,–
CCOC(=O)Cc1csc(NC(=S)NC(=O)c2ccc(F)cc2)n1,inactive: -46%,–
CCCc1nc2c3ccccc3ccn2c1Cc1ccccc1,–,active: 11.2 µM
COc1ccc(NC(=O)Nc2nnc(-c3ccco3)s2)cc1,–,"inconclusive: 1.12 µM [activator, full curve, poor fit]"
Cc1ccc(-n2nc3ccc(NC(=O)c4ccco4)cc3n2)cc1,–,"inconclusive: 2.51 µM [activator, full curve, poor fit]"
O=C(COc1ccc2cc(Br)ccc2c1)N1CCOCC1,–,"inconclusive: 25.1 µM [activator, single point]"
Cn1cccc1C(=O)OCC(=O)N1CCc2ccccc2C1,–,"inconclusive: 8.91 µM [activator, partial curve, poor fit]"
CCCNC(=O)c1ccc(COc2ccc(C(C)(C)C)cc2)o1,–,"inconclusive: 1 µM [activator, full curve, poor fit]"
CCOC(=O)c1c(C)[nH]c(N=Nc2ccc(OC)cc2)c1C,–,active: 6.31 µM
COc1ccc(Cc2nc3ccc(C(=O)NCCCSC)cc3o2)cc1OC,–,active: 12.6 µM
c1ccc(CSc2nnc(SCc3ccccn3)s2)nc1,–,"inconclusive: 11.2 µM [activator, partial curve, poor fit]"
S=C1NC2=C(CCC/C2=C\c2ccc(Cl)cc2)C(c2ccc(Cl)cc2)N1 (centres undefined),inactive: -22.5%,–
COC(=O)c1c(-c2cccnc2)csc1NC(=O)c1cc(C)on1,–,"inconclusive: 2.24 µM [activator, partial curve, poor fit]"
Nc1c(S(=O)(=O)c2ccccc2)c2nc3ccccc3nc2n1Cc1ccco1,inactive: -39.4%,–
CCCCC(=O)Nc1sc2c(c1C(N)=O)CCC2,–,"inconclusive: 10 µM [activator, partial curve, poor fit]"
O=C(N/N=C/C(Br)=C/c1ccccc1)c1ccc([N+](=O)[O-])cc1,inactive: -22.1%,–
Cc1cc(C(=O)COC(=O)c2cccnc2Cl)c(C)n1C,–,"inconclusive: 0.631 µM [activator, full curve, poor fit]"

SMILES,activation,Potency
Cn1ncc(Cl)c(Oc2ccc(C(C)(C)C)cc2)c1=O,inactive: -23.9%,–
COc1cccc(C(=O)Nc2cc3c(cc2Cl)OCCCO3)c1,–,"inconclusive: 2.24 µM [activator, full curve, poor fit]"
CCC(=O)Nc1cccc(NC(=S)NC(=O)c2ccccc2Cl)c1,–,"inconclusive: 12.6 µM [activator, partial curve, poor fit]"
COc1ccc2c(c1)C(=O)/C(=C/C=C/c1ccccc1)CC2,inactive: -1.89%,–
COc1ccc(C(=O)c2ccc(N3CCN(C(=O)c4ccc(F)cc4)CC3)c(F)c2)cc1Br,inactive: -25.8%,–
CC1CCCCC1NC(=O)/C=C/c1nc2ccccc2s1 (centres undefined),–,"inconclusive: 35.5 µM [activator, single point]"
CC(C)CC1(C)N=C(c2ccccc2)C(=S)N1 (centres undefined),inactive: -28.6%,–
CSc1nccc(N/N=C/c2ccccc2)n1,–,"inconclusive: 2.51 µM [activator, full curve, poor fit]"
O=C(NCCC1=CCCCC1)c1cnccn1,–,"inconclusive: 22.4 µM [activator, single point]"
Cc1cc(NC(=O)c2ccc(OCC3CCCO3)cc2)ccc1Br (centres undefined),–,"inconclusive: 1 µM [activator, full curve, poor fit]"
N#Cc1cc2c(nc1SCc1ccncc1)CCC2,–,active: 11.2 µM
COC(=O)c1cccc(NC(=O)c2onc3c2CCCC3)c1,–,"inconclusive: 0.631 µM [activator, full curve, poor fit]"
COc1ccc(-c2ccc(C(=O)Nc3ccc4c(c3)OCO4)c3occc23)c(C)c1,–,"inconclusive: 2.82 µM [activator, full curve, poor fit]"
CCc1ccccc1NC(=O)c1ccc(-c2csc(C)n2)cc1,–,active: 3.55 µM
CCCCc1ccc(NC(=O)C2CCCC2)cc1,–,"inconclusive: 15.8 µM [activator, partial curve, poor fit]"
COc1ccc(-n2c(C)cc(/C=C3\SC(=O)NC3=O)c2C)cc1,–,active: 11.2 µM
CC(=O)c1ccc(Nc2ccc(-c3ccccc3F)nn2)cc1,inconclusive: 75% [activator],–
c1ccc(Cn2cc(-c3cccnc3)cn2)cc1,–,"inconclusive: 15.8 µM [activator, single point]"
CCCn1c(C)cc(C(=O)COC(=O)c2nccnc2N)c1C,–,"inconclusive: 2.24 µM [activator, full curve, poor fit]"
Cc1cccc(OCCCn2c(=O)sc3ccccc32)c1,–,"inconclusive: 11.2 µM [activator, partial curve, poor fit]"
O=C(Nc1cccc(Cl)c1)c1ccc2c(c1)OCCO2,–,"inconclusive: 1.58 µM [activator, partial curve, poor fit]"
N#Cc1c(SCC(N)=O)nc(-c2ccccc2)c2c1CCCC2,inactive: -19.5%,–
O=C(N/N=C/c1c(F)cccc1Cl)c1cc(C2CC2)[nH]n1,–,active: 11.2 µM
CCCC(=O)c1ccc(N2CCCCC2)c(F)c1,–,"inconclusive: 15.8 µM [activator, single point]"
